Assay results taken from the supplement of paper PMC12230231.
± gives the standard deviation of the averaged measurements. Restriction of a single-cycle SIVsab GFP reporter by TRIM5α v1-loop variants in CRFK cells. Human variants: read share among cells still uninfected after two challenges over input, higher = gained restriction. Rhesus variants: share among infected cells over input, higher = lost restriction. Reporter dose not given per row. No active / inactive call per row; the paper calls a change when both replicates lie above its controls (mean + 2 SD of stop or wild-type variants, or the top frameshift score). Residues outside the varied loop are taken from Swiss-Prot. The paper reads the human single-substitution scores as noise; they and the rhesus combinations repeat poorly (rank correlation 0.3 to 0.4), indel scores repeat only for the top variants, rhesus substitutions well (0.9).

These sequences were tested on SIVsab (simian immunodeficiency virus of sabaeus monkeys), single-cycle GFP reporter, in CRFK cells (assay: enrichment among infected cells over input (fold); higher = weaker restriction). Details: library: human / rhesus combinations.
Description: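 Pools of CRFK cells expressing variants of the TRIM5α v1 loop were challenged with the single-cycle reporter, sorted by GFP and sequenced; mean of two replicates.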

Row | Sequence | enrichment
1 | MASGILLNVKEEVTCPICLELLTEPLSLHCGHSFCQACITANHKKSMLYKEGERSCPVCRISYQPENIQPNRHVANIVEKLREVKLSPEEGQKVDHCARHGEKLLLFCQEDSKVICWLCERSQEHRGHHTFLMEEVAQEYHVKLQTALEMLRQKQQEAEKLEADIREEKASWKIQIDYDKTNVSADFEQLREILDWEESNELQNLEKEEEDILKSLTKSETEMVQQTQYMRELISELEHRLQGSMMDLLQGVDGIIKRIENMTLKKPKTFHKNQRRVFRAPDLKGMLDMFRELTDARRYWVDVTLAPNNISHAVIAEDKRQVSSRNPQIMYQARGTLYTFPSFVNFNYCTGVLGSQSITSGKHYWEVDVSKKSAWILGVCAGFQSDAMYNIEQNENYQPKYGYWVIGLQEGVKYSVFQDGSSHTPFAPFIVPLSVIICPDRVGVFVDYEACTVSFFNITNHGFLIYKFSQCSFSKPVFPYLNPRKCTVPMTLCSPSS [rhesus TRIM5α, 332-344 = QARGTLYTFPSFV] | 1.08 ± 0.066
2 | MASGILLNVKEEVTCPICLELLTEPLSLHCGHSFCQACITANHKKSMLYKEGERSCPVCRISYQPENIQPNRHVANIVEKLREVKLSPEEGQKVDHCARHGEKLLLFCQEDSKVICWLCERSQEHRGHHTFLMEEVAQEYHVKLQTALEMLRQKQQEAEKLEADIREEKASWKIQIDYDKTNVSADFEQLREILDWEESNELQNLEKEEEDILKSLTKSETEMVQQTQYMRELISELEHRLQGSMMDLLQGVDGIIKRIENMTLKKPKTFHKNQRRVFRAPDLKGMLDMFRELTDARRYWVDVTLAPNNISHAVIAEDKRQVSSRNPQIMYGAPGTLFTFQTFVNFNYCTGVLGSQSITSGKHYWEVDVSKKSAWILGVCAGFQSDAMYNIEQNENYQPKYGYWVIGLQEGVKYSVFQDGSSHTPFAPFIVPLSVIICPDRVGVFVDYEACTVSFFNITNHGFLIYKFSQCSFSKPVFPYLNPRKCTVPMTLCSPSS [rhesus TRIM5α, 332-344 = GAPGTLFTFQTFV] | 1.1 ± 0.41
3 | MASGILLNVKEEVTCPICLELLTEPLSLHCGHSFCQACITANHKKSMLYKEGERSCPVCRISYQPENIQPNRHVANIVEKLREVKLSPEEGQKVDHCARHGEKLLLFCQEDSKVICWLCERSQEHRGHHTFLMEEVAQEYHVKLQTALEMLRQKQQEAEKLEADIREEKASWKIQIDYDKTNVSADFEQLREILDWEESNELQNLEKEEEDILKSLTKSETEMVQQTQYMRELISELEHRLQGSMMDLLQGVDGIIKRIENMTLKKPKTFHKNQRRVFRAPDLKGMLDMFRELTDARRYWVDVTLAPNNISHAVIAEDKRQVSSRNPQIMYQAPGTRYPSLVNFNYCTGVLGSQSITSGKHYWEVDVSKKSAWILGVCAGFQSDAMYNIEQNENYQPKYGYWVIGLQEGVKYSVFQDGSSHTPFAPFIVPLSVIICPDRVGVFVDYEACTVSFFNITNHGFLIYKFSQCSFSKPVFPYLNPRKCTVPMTLCSPSS [rhesus TRIM5α, 332-344 = QAPGTRYPSLV] | 0.36 ± 0.12
4 | MASGILLNVKEEVTCPICLELLTEPLSLHCGHSFCQACITANHKKSMLYKEGERSCPVCRISYQPENIQPNRHVANIVEKLREVKLSPEEGQKVDHCARHGEKLLLFCQEDSKVICWLCERSQEHRGHHTFLMEEVAQEYHVKLQTALEMLRQKQQEAEKLEADIREEKASWKIQIDYDKTNVSADFEQLREILDWEESNELQNLEKEEEDILKSLTKSETEMVQQTQYMRELISELEHRLQGSMMDLLQGVDGIIKRIENMTLKKPKTFHKNQRRVFRAPDLKGMLDMFRELTDARRYWVDVTLAPNNISHAVIAEDKRQVSSRNPQIMYGARGTRYTFQTFVNFNYCTGVLGSQSITSGKHYWEVDVSKKSAWILGVCAGFQSDAMYNIEQNENYQPKYGYWVIGLQEGVKYSVFQDGSSHTPFAPFIVPLSVIICPDRVGVFVDYEACTVSFFNITNHGFLIYKFSQCSFSKPVFPYLNPRKCTVPMTLCSPSS [rhesus TRIM5α, 332-344 = GARGTRYTFQTFV] | 1.26 ± 0.41
5 | MASGILLNVKEEVTCPICLELLTEPLSLHCGHSFCQACITANHKKSMLYKEGERSCPVCRISYQPENIQPNRHVANIVEKLREVKLSPEEGQKVDHCARHGEKLLLFCQEDSKVICWLCERSQEHRGHHTFLMEEVAQEYHVKLQTALEMLRQKQQEAEKLEADIREEKASWKIQIDYDKTNVSADFEQLREILDWEESNELQNLEKEEEDILKSLTKSETEMVQQTQYMRELISELEHRLQGSMMDLLQGVDGIIKRIENMTLKKPKTFHKNQRRVFRAPDLKGMLDMFRELTDARRYWVDVTLAPNNISHAVIAEDKRQVSSRNPQIMYQARGTLFTFPTLVNFNYCTGVLGSQSITSGKHYWEVDVSKKSAWILGVCAGFQSDAMYNIEQNENYQPKYGYWVIGLQEGVKYSVFQDGSSHTPFAPFIVPLSVIICPDRVGVFVDYEACTVSFFNITNHGFLIYKFSQCSFSKPVFPYLNPRKCTVPMTLCSPSS [rhesus TRIM5α, 332-344 = QARGTLFTFPTLV] | 0.647 ± 0.54
6 | MASGILLNVKEEVTCPICLELLTEPLSLHCGHSFCQACITANHKKSMLYKEGERSCPVCRISYQPENIQPNRHVANIVEKLREVKLSPEEGQKVDHCARHGEKLLLFCQEDSKVICWLCERSQEHRGHHTFLMEEVAQEYHVKLQTALEMLRQKQQEAEKLEADIREEKASWKIQIDYDKTNVSADFEQLREILDWEESNELQNLEKEEEDILKSLTKSETEMVQQTQYMRELISELEHRLQGSMMDLLQGVDGIIKRIENMTLKKPKTFHKNQRRVFRAPDLKGMLDMFRELTDARRYWVDVTLAPNNISHAVIAEDKRQVSSRNPQIMYGARGTLYTFQSLTNFNYCTGVLGSQSITSGKHYWEVDVSKKSAWILGVCAGFQSDAMYNIEQNENYQPKYGYWVIGLQEGVKYSVFQDGSSHTPFAPFIVPLSVIICPDRVGVFVDYEACTVSFFNITNHGFLIYKFSQCSFSKPVFPYLNPRKCTVPMTLCSPSS [rhesus TRIM5α, 332-344 = GARGTLYTFQSLT] | 1.21 ± 0.061
7 | MASGILLNVKEEVTCPICLELLTEPLSLHCGHSFCQACITANHKKSMLYKEGERSCPVCRISYQPENIQPNRHVANIVEKLREVKLSPEEGQKVDHCARHGEKLLLFCQEDSKVICWLCERSQEHRGHHTFLMEEVAQEYHVKLQTALEMLRQKQQEAEKLEADIREEKASWKIQIDYDKTNVSADFEQLREILDWEESNELQNLEKEEEDILKSLTKSETEMVQQTQYMRELISELEHRLQGSMMDLLQGVDGIIKRIENMTLKKPKTFHKNQRRVFRAPDLKGMLDMFRELTDARRYWVDVTLAPNNISHAVIAEDKRQVSSRNPQIMYGAPGTLYQSLVNFNYCTGVLGSQSITSGKHYWEVDVSKKSAWILGVCAGFQSDAMYNIEQNENYQPKYGYWVIGLQEGVKYSVFQDGSSHTPFAPFIVPLSVIICPDRVGVFVDYEACTVSFFNITNHGFLIYKFSQCSFSKPVFPYLNPRKCTVPMTLCSPSS [rhesus TRIM5α, 332-344 = GAPGTLYQSLV] | 0.648 ± 0.7
8 | MASGILLNVKEEVTCPICLELLTEPLSLHCGHSFCQACITANHKKSMLYKEGERSCPVCRISYQPENIQPNRHVANIVEKLREVKLSPEEGQKVDHCARHGEKLLLFCQEDSKVICWLCERSQEHRGHHTFLMEEVAQEYHVKLQTALEMLRQKQQEAEKLEADIREEKASWKIQIDYDKTNVSADFEQLREILDWEESNELQNLEKEEEDILKSLTKSETEMVQQTQYMRELISELEHRLQGSMMDLLQGVDGIIKRIENMTLKKPKTFHKNQRRVFRAPDLKGMLDMFRELTDARRYWVDVTLAPNNISHAVIAEDKRQVSSRNPQIMYQARGTLFTFQSFTNFNYCTGVLGSQSITSGKHYWEVDVSKKSAWILGVCAGFQSDAMYNIEQNENYQPKYGYWVIGLQEGVKYSVFQDGSSHTPFAPFIVPLSVIICPDRVGVFVDYEACTVSFFNITNHGFLIYKFSQCSFSKPVFPYLNPRKCTVPMTLCSPSS [rhesus TRIM5α, 332-344 = QARGTLFTFQSFT] | 0.951 ± 0.036
9 | MASGILLNVKEEVTCPICLELLTEPLSLHCGHSFCQACITANHKKSMLYKEGERSCPVCRISYQPENIQPNRHVANIVEKLREVKLSPEEGQKVDHCARHGEKLLLFCQEDSKVICWLCERSQEHRGHHTFLMEEVAQEYHVKLQTALEMLRQKQQEAEKLEADIREEKASWKIQIDYDKTNVSADFEQLREILDWEESNELQNLEKEEEDILKSLTKSETEMVQQTQYMRELISELEHRLQGSMMDLLQGVDGIIKRIENMTLKKPKTFHKNQRRVFRAPDLKGMLDMFRELTDARRYWVDVTLAPNNISHAVIAEDKRQVSSRNPQIMYGARGTRFQTFTNFNYCTGVLGSQSITSGKHYWEVDVSKKSAWILGVCAGFQSDAMYNIEQNENYQPKYGYWVIGLQEGVKYSVFQDGSSHTPFAPFIVPLSVIICPDRVGVFVDYEACTVSFFNITNHGFLIYKFSQCSFSKPVFPYLNPRKCTVPMTLCSPSS [rhesus TRIM5α, 332-344 = GARGTRFQTFT] | 1.62 ± 1.7
10 | MASGILLNVKEEVTCPICLELLTEPLSLHCGHSFCQACITANHKKSMLYKEGERSCPVCRISYQPENIQPNRHVANIVEKLREVKLSPEEGQKVDHCARHGEKLLLFCQEDSKVICWLCERSQEHRGHHTFLMEEVAQEYHVKLQTALEMLRQKQQEAEKLEADIREEKASWKIQIDYDKTNVSADFEQLREILDWEESNELQNLEKEEEDILKSLTKSETEMVQQTQYMRELISELEHRLQGSMMDLLQGVDGIIKRIENMTLKKPKTFHKNQRRVFRAPDLKGMLDMFRELTDARRYWVDVTLAPNNISHAVIAEDKRQVSSRNPQIMYGARGTRYTFPSFVNFNYCTGVLGSQSITSGKHYWEVDVSKKSAWILGVCAGFQSDAMYNIEQNENYQPKYGYWVIGLQEGVKYSVFQDGSSHTPFAPFIVPLSVIICPDRVGVFVDYEACTVSFFNITNHGFLIYKFSQCSFSKPVFPYLNPRKCTVPMTLCSPSS [rhesus TRIM5α, 332-344 = GARGTRYTFPSFV] | 1.13 ± 0.47
11 | MASGILLNVKEEVTCPICLELLTEPLSLHCGHSFCQACITANHKKSMLYKEGERSCPVCRISYQPENIQPNRHVANIVEKLREVKLSPEEGQKVDHCARHGEKLLLFCQEDSKVICWLCERSQEHRGHHTFLMEEVAQEYHVKLQTALEMLRQKQQEAEKLEADIREEKASWKIQIDYDKTNVSADFEQLREILDWEESNELQNLEKEEEDILKSLTKSETEMVQQTQYMRELISELEHRLQGSMMDLLQGVDGIIKRIENMTLKKPKTFHKNQRRVFRAPDLKGMLDMFRELTDARRYWVDVTLAPNNISHAVIAEDKRQVSSRNPQIMYGARGTLYTFQSFVNFNYCTGVLGSQSITSGKHYWEVDVSKKSAWILGVCAGFQSDAMYNIEQNENYQPKYGYWVIGLQEGVKYSVFQDGSSHTPFAPFIVPLSVIICPDRVGVFVDYEACTVSFFNITNHGFLIYKFSQCSFSKPVFPYLNPRKCTVPMTLCSPSS [rhesus TRIM5α, 332-344 = GARGTLYTFQSFV] | 0.719 ± 0.16
12 | MASGILLNVKEEVTCPICLELLTEPLSLHCGHSFCQACITANHKKSMLYKEGERSCPVCRISYQPENIQPNRHVANIVEKLREVKLSPEEGQKVDHCARHGEKLLLFCQEDSKVICWLCERSQEHRGHHTFLMEEVAQEYHVKLQTALEMLRQKQQEAEKLEADIREEKASWKIQIDYDKTNVSADFEQLREILDWEESNELQNLEKEEEDILKSLTKSETEMVQQTQYMRELISELEHRLQGSMMDLLQGVDGIIKRIENMTLKKPKTFHKNQRRVFRAPDLKGMLDMFRELTDARRYWVDVTLAPNNISHAVIAEDKRQVSSRNPQIMYQARGTRFTFPTFTNFNYCTGVLGSQSITSGKHYWEVDVSKKSAWILGVCAGFQSDAMYNIEQNENYQPKYGYWVIGLQEGVKYSVFQDGSSHTPFAPFIVPLSVIICPDRVGVFVDYEACTVSFFNITNHGFLIYKFSQCSFSKPVFPYLNPRKCTVPMTLCSPSS [rhesus TRIM5α, 332-344 = QARGTRFTFPTFT] | 1.05 ± 0.73
